Measurements published in PubChem BioAssay AID2101 (National Center for Advancing Translational Sciences (NCATS), 2009).
Screen size: about 330,000 compounds; about 300 (0.091%) were called active. The inconclusive results got no clear call from the source; some entries with a clear call stand among them for comparison. Calls come from the whole dose curve; as a rule, active = well fitted inhibition curve with a large enough effect; inconclusive = small, poorly fitted or top-dose-only effect, or effect the other way, or another doubt; inactive = no such curve, though single readings can be large or run the other way. Potencies of inconclusive entries are left out as doubtful fits.
Potency is the fitted concentration of half-maximal effect.
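Throughout, for activity change, negative = inhibition: 0% = full enzyme activity and -100% = no enzyme basal.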

What follows are compounds tested against Lysosomal acid glucosylceramidase (Homo sapiens) (UniProt P04062) (assay: qHTS Assay for Inhibitors and Activators of N370S glucocerebrosidase as a Potential Chaperone Treatment of Gaucher Disease). Details: N370S GC spleen homogenate, 4MU-glucoside fluorescence; activity change, negative = inhibition: at 59.4 µM (top of the series) unless noted.
In the case of `O=[N+]([O-])c1ccc(CSc2nc3ccccc3[nH]2)cc1`, the “activity change, negative = inhibition” value was inactive: 5.78%. With `O=C(CCc1ccc(S(=O)(=O)NCc2ccccc2)cc1)NCc1ccc2c(c1)OCO2` the Potency was inconclusive [inhibitor, single point]. In the case of `COc1ccc(NC(=O)C(NC(=O)c2ccc(C)cc2)c2ccccc2)cc1` (centres undefined), the Potency was inconclusive [activator, single point]. For `CCC(CC)C(=O)N1N=C(c2ccc(NS(C)(=O)=O)cc2)CC1c1ccc(C)cc1` (centres undefined), the Potency was inconclusive [activator, single point]. In the case of `C/C(=C\C(=O)c1ccccc1)NCc1ccc(F)cc1`, the Potency was inconclusive [inhibitor, full curve, poor fit]. In the case of `S=C(NCCN1CCOCC1)Nc1ccc(Cl)c(Cl)c1`, the Potency was inconclusive [inhibitor, partial curve]. With `COc1cccc(N2CCN(c3cnc4ccccc4n3)CC2)c1` the Potency was inconclusive [activator, single point]. With `CCC(C)(C)c1ccc(OCCCC[n+]2cccc(C)c2)c(C(C)(C)CC)c1` the Potency was inconclusive [inhibitor, partial curve]. In the case of `COC(=O)CNC(=O)CN1C(=O)N(c2ccccc2)C(N(O)C(=O)Nc2ccccc2)C1(C)C` (centres undefined), the activity change, negative = inhibition was inconclusive: 34.3% [activator]. In the case of `CCOc1ccc(C(c2c(NC(=O)c3ccccc3)sc(C)c2C)N2CCN(C)CC2)cc1` (centres undefined), the Potency was active: 15.8 µM. With `COc1ccc2[nH]c3c(=O)n(N)c(=O)[nH]c3c2c1` the Potency was inconclusive [activator, partial curve]. In the case of `COc1ccc(OC)c(Nc2ncnc3c2cnn3-c2cccc(C)c2)c1`, the “activity change, negative = inhibition” value was inactive: 6.38%. For `CCS(=O)(=O)Nc1ccc(C2=NN(C(C)=O)C(c3cccs3)C2)cc1` (centres undefined), the Potency was inconclusive [activator, partial curve]. With `CSc1nc(NCC(C)C)c2c3c(sc2n1)CN(C)CC3` the “activity change, negative = inhibition” value was inactive: -2.48%. `COc1ccccc1NC(=O)CN1CCN(CC(=O)Nc2ccc(F)cc2)CC1` was tested, and the Potency was inconclusive [inhibitor, full curve]. For `Cc1cc(N(CCO)CCO)ccc1C(c1ccc(N(CCO)CCO)cc1C)c1ccccc1Cl`, the Potency was inconclusive [inhibitor, single point]. `CCC(C)c1ccc(NC(=O)N2CCOCC2)cc1` (centres undefined) was tested, and the “activity change, negative = inhibition” value was inactive: -2.86%. `CC1CCN(c2oc(-c3ccccc3Cl)nc2C#N)CC1` was tested, and the “activity change, negative = inhibition” value was inactive: 8.86%. In the case of `COC(=O)CCc1c(C)c(C(=O)c2cc(F)c(F)c(F)c2F)c2ccccn12`, the Potency was inconclusive [activator, partial curve]. `O=C(N/N=C/c1ccccc1C(F)(F)F)c1ccc2nc[nH]c2c1` was tested, and the Potency was inconclusive [inhibitor, partial curve]. In the case of `Cc1cccc(C)c1NC(=O)CSCC(=O)O`, the activity change, negative = inhibition was inactive: 11.6% [at 2.35 µM]. `CN(C)S(=O)(=O)c1cccc(C(=O)OCC(=O)c2ccc3c(c2)NC(=O)CO3)c1` was tested, and the Potency was inconclusive [inhibitor, single point]. In the case of `CC(=O)Nc1cccc(Nc2nc(-c3ccccc3)nc3ccccc23)c1`, the Potency was inconclusive [inhibitor, partial curve]. In the case of `Fc1cc2ncn(Cc3ccccc3)c2cc1F`, the Potency was inconclusive [activator, partial curve, poor fit]. In the case of `O=C(CSc1nnc(CNc2ccc(Cl)cc2)n1Cc1ccccc1)NCc1ccco1`, the “activity change, negative = inhibition” value was inactive: -6.7%. For `COc1ccc(-c2cc3ccc(O)cc3oc2=O)cc1OC`, the Potency was inconclusive [activator, partial curve]. `Nc1ncnc2c1ncn2C1OC(COP(=O)(O)O)C(O)C1O` (centres undefined) was tested, and the Potency was “inactive”. `O=C(Cc1ccc([N+](=O)[O-])cc1)NCc1ccccc1Cl` was tested, and the Potency was inconclusive [inhibitor, single point]. `Cc1c(NC(=O)c2cc(-n3cnnc3)ccc2Cl)cccc1-c1nc2ccccc2s1` was tested, and the “activity change, negative = inhibition” value was inactive: -4.58%. `O=C1OCC2=C1C(c1ccc3c(c1)OCO3)Sc1ccccc1N2` (centres undefined) was tested, and the Potency was inconclusive [inhibitor, partial curve]. In the case of `CCc1ccc(OCC(=O)Nc2ccc(S(=O)(=O)Nc3ccccn3)cc2)cc1`, the “activity change, negative = inhibition” value was inactive: -2.96%. `CCS(=O)(=O)C1=NSC2=NC(=O)/C(=C\c3ccc(OC(=O)c4ccco4)cc3)C(=N)N21` was tested, and the Potency was inconclusive [inhibitor, partial curve]. For `Cc1cc2[nH]c(=O)c(=O)[nH]c2cc1S(=O)(=O)NC1CCC(C)CC1` (centres undefined), the Potency was inconclusive [inhibitor, single point]. In the case of `Cc1cccc(NC(=O)CSc2nc3ccccc3nc2N2CCCCC2)c1`, the Potency was inconclusive [activator, single point]. With `Cc1nc(CN(C)C(=O)CC2C(=O)NCCN2Cc2ccc(-c3ccccc3)cc2)cs1` (centres undefined) the Potency was inconclusive [inhibitor, single point]. With `CNc1nc(-c2ccccc2C)nc2ccccc12` the Potency was inconclusive [inhibitor, single point]. With `CC(=O)c1cccc(NC(=O)Nc2nc(C)cc(C)n2)c1` the Potency was inconclusive [inhibitor, single point]. With `COCCNC(=O)CN1C(=O)/C(=C/c2ccccc2)Oc2ccc(C(C)(C)C)cc21` the Potency was inconclusive [activator, partial curve]. In the case of `CCOC(=O)c1c(C(C)(C)C)oc2ccc(OCC#N)cc12`, the Potency was inconclusive [activator, partial curve]. With `O=c1[nH]c2cc3c(cc2cc1C(c1nnnn1Cc1ccccc1)N1CCN2CCCC2C1)OCCO3` (centres undefined) the “activity change, negative = inhibition” value was inactive: 6.58%. With `Nc1ccc(N)c(C(=O)O)c1` the Potency was inconclusive [inhibitor, full curve, poor fit]. For `CCC(C(=O)NCc1ccco1)N(C(=O)CNS(=O)(=O)c1ccc(C)cc1)c1ccccc1OC` (centres undefined), the “activity change, negative = inhibition” value was inactive: -1.7%. In the case of `Cc1ccc(Cl)c(N/C=C/C(=O)c2ccccc2)c1`, the “activity change, negative = inhibition” value was inactive: 8.4%. For `O=C(NC12CC3CC(CC(C3)C1)C2)c1ccc(-c2cccc(Cl)c2)o1`, the Potency was inconclusive [activator, single point]. With `CC1Cc2ccccc2N1C(=O)COC(=O)c1c2c(nc3ccccc13)CCCCC2` (centres undefined) the Potency was inconclusive [inhibitor, single point]. `Cc1[nH]c2ccccc2c1/C=N/NC(=O)c1ccccc1` was tested, and the Potency was inconclusive [activator, partial curve]. For `CN1CCc2c(sc3c2C(=O)NC(c2ccccn2)N3)C1` (centres undefined), the “activity change, negative = inhibition” value was inactive: 8.92%. With `COc1ccc(NC(=S)N(CCO)Cc2ccccc2)cc1` the Potency was inconclusive [inhibitor, single point]. In the case of `CCOC(=O)CSC1=Nc2ccccc2C2=NC(CC(=O)NCc3ccc4c(c3)OCO4)C(=O)N12` (centres undefined), the “activity change, negative = inhibition” value was inactive: 9.85%. With `CCN(C(=O)c1c(C)cc(=O)oc1C)c1ccc2c(c1)OCO2` the “activity change, negative = inhibition” value was inactive: 5.82%. `CCN1CCN(C(c2ccc(C(F)(F)F)cc2)c2ccc3cccnc3c2O)CC1` (centres undefined) was tested, and the Potency was inconclusive [inhibitor, partial curve, poor fit]. In the case of `O=C(c1ccc(Cn2c(=O)[nH]c3ccccc3c2=O)cc1)N1CCN(c2ccc(F)cc2)CC1`, the Potency was inconclusive [activator, partial curve]. With `CCCCN(C)S(=O)(=O)c1cc(Br)cc2c1N(C(=O)C1CC1)CC2` the Potency was inconclusive [activator, single point]. `CN1CCN(C/C(=C2/N=C(c3ccccc3)OC2=O)N(C)C)CC1` was tested, and the Potency was inconclusive [inhibitor, single point]. With `c1ccc(Oc2cc(-c3ccccc3)ncn2)cc1` the “activity change, negative = inhibition” value was inactive: 2.67%. In the case of `COc1cc2ncnc(Nc3cccc(Cl)c3)c2cc1OC`, the Potency was inconclusive [inhibitor, full curve, poor fit]. In the case of `COc1ccc(C(=O)/C=C/c2cccc(OCc3ccccc3)c2)cc1CSCC(=O)O`, the Potency was inconclusive [activator, single point]. With `O=c1ccc(-c2ccc(S(=O)(=O)Nc3ccc(F)cc3)s2)n[nH]1` the Potency was inconclusive [inhibitor, single point]. For `C/C(NC(=O)c1cccs1)=C1\C(=O)C[C@@H]2[C@H]1C2(C)C`, the Potency was inconclusive [activator, partial curve]. With `COc1ccc(NC(=S)N2CCC(C(=O)c3ccc(C)cc3)CC2)cc1` the Potency was inconclusive [inhibitor, partial curve, poor fit]. For `NCCCC[C@H](NC(=O)[C@@H]1CCCN1C(=O)[C@H](CO)NC(=O)[C@H](CC(=O)O)NC(=O)CNC(=O)[C@H](CCCN=C(N)N)NC(=O)CN)C(=O)O`, the “activity change, negative = inhibition” value was inactive: -6.9%. In the case of `COC(=O)CCC(=O)NNC(=O)c1ccc(Br)cc1`, the Potency was inconclusive [inhibitor, full curve, poor fit]. For `CC(C)CC1NC(=O)N(CC(=O)N2c3ccccc3NC(=O)C2(C)C)C1=O` (centres undefined), the “activity change, negative = inhibition” value was inactive: 1.38%. With `O=C(CC1SC(=O)N(c2ccccc2)C1=O)Nc1ccc(Br)cc1` (centres undefined) the “activity change, negative = inhibition” value was inactive: -13.6%. In the case of `COc1cc(NS(=O)(=O)c2ccc3[nH]c(=O)[nH]c3c2)cc(OC)c1`, the Potency was inconclusive [inhibitor, full curve]. With `O=P(c1ccccc1)(c1ccccc1)c1nc(-c2ccc(Cl)cc2)oc1N1CCOCC1` the Potency was inconclusive [activator, partial curve]. With `CCc1nc(N(CC)CC)c2oc3ccccc3c2n1` the Potency was inconclusive [activator, partial curve]. For `O=C(Cc1ccccc1)Nc1ccc(Br)c(Cl)c1`, the “activity change, negative = inhibition” value was inactive: 10.2%. With `O=C(/C=C/c1ccc(Cl)c(Cl)c1)NCc1ccco1` the Potency was inconclusive [activator, single point].
